Measured values reported in PubChem BioAssay AID1671194 (National Center for Advancing Translational Sciences (NCATS), 2021).
Several values for one entry are separate records, joined by “and”; a condition that tells them apart may be missing. Equal values may be shown once. Hit rate of the full screen: of about 140,000 compounds, about 240 (0.17%) were called active. The inconclusive results got no clear call from the source; some entries with a clear call stand among them for comparison. Calls come from the whole dose curve; as a rule, active = well fitted inhibition curve with a large enough effect; inconclusive = small, poorly fitted or top-dose-only effect; inactive = no such curve, though single readings can be large or run the other way. Where the call is inconclusive, the potency comes from a doubtful curve fit.

assay: Primary qHTS assay for inhibitors of alpha-synuclein gene (SNCA) expression; conditions: HEK-293 SNCA-luciferase knock-in, luminescence, 24 h; series mostly up to 57.2 µM; note: nearly all actives have a fitted effect of over 45% in size
Potency is the fitted concentration of half-maximal effect; tags give direction and shape of the fitted curve.

Compound	Potency
COc1ccc(CNC(=O)C2CCN(C(=O)c3ccc(-c4ccccc4OC)cc3)CC2)cc1	inactive
O=C(NCc1ccc(Cl)cc1)C1CCCN(C(=O)c2cnn(-c3ccc(F)cc3)c2-n2cccc2)C1 (stereo not drawn)	inconclusive: 17.8 µM [inhibitor, partial curve, poor fit]
CCC[C@H]1CN(S(=O)(=O)c2ccc(-c3ccn[nH]3)o2)C[C@@H]1N	inconclusive: 2.51 µM [inhibitor, single point]
O=C(c1cccs1)N1CCC(N2C(=O)C(OCC3CC3)C23CCCCC3)CC1 (stereo not drawn)	inactive
COc1ccccc1N1CCCc2ncc(C(=O)N3CCC[C@@H]3c3ccc(F)cc3)cc21	inactive
CN(C)c1ccc(CN2CCC(c3nc4ncccc4[nH]3)C2)cc1 (stereo not drawn)	inconclusive: 10 µM [inhibitor, single point]
O=C(NCc1cccc(Br)c1)c1noc(-c2ccc(F)cc2)n1	inactive
CCN1CCN(CCNC(=O)c2cccc3c2CCN3C(=O)Nc2ccc(C)cc2)CC1	active: 12.6 µM
Cc1ccc2c(C(=O)Nc3ccc(Cl)nc3)cnn2c1	inactive
CC(=O)c1cc(CN2CCC(n3nccc3NC(=O)Cc3ccccc3)CC2)cs1	inconclusive: 1 µM [inhibitor, full curve, poor fit]
CCC(C(=O)Nc1ccccc1C(=O)OC)n1nc(C)c2c(C)n(-c3ccc(C)cc3)nc2c1=O (stereo not drawn)	inconclusive: 39.8 µM [inhibitor, partial curve, poor fit]
CCC1CCc2nc3sc(C(=O)Nc4ccc(F)c(Cl)c4)c(N)c3cc2C1 (stereo not drawn)	inconclusive: 39.8 µM [inhibitor, single point]
CN1CCCN(S(=O)(=O)c2ccc(Cl)cc2)c2ccccc21	inactive
COc1ccc(-c2cc(N3CCC(NC(=O)c4cc(Cl)ccc4F)C3)n[nH]2)cc1 (stereo not drawn)	inactive
Cc1nc(-c2ccc(Cl)cc2)sc1CCNC(=O)c1ccc(C(F)(F)F)cc1	inconclusive: 0.891 µM [inhibitor, full curve, poor fit]
O=C1[C@@H]2C[C@@H](CN2Cc2ccc(C(F)(F)F)cc2)Oc2ccccc2N1Cc1cccnc1	inconclusive: 14.1 µM [inhibitor, partial curve]
O=C(NCc1cccnc1N1CCOCC1)c1n[nH]c2c1CCCC2	inactive
CC(=O)N1CCC(C2CCN(C(=O)C3CC=CC3)C2)CC1 (stereo not drawn)	inconclusive: 25.1 µM [inhibitor, partial curve, poor fit]
O=C(Cn1c(=O)c2cc(Cl)ccc2n2nncc12)Nc1ccccc1	inconclusive: 1 µM [inhibitor, partial curve, poor fit]
CCOc1ccccc1C(=O)N1CC(=O)Nc2ccc(Cl)cc2C1c1ccccc1 (stereo not drawn)	inconclusive: 28.2 µM [inhibitor, single point]
COc1cncc(Nc2cnc3ccc(N(C)Cc4ccc(F)cc4)nn23)c1	inconclusive: 31.6 µM [inhibitor, single point]

Compound	Potency
CN1C[C@H](C(=O)Nc2cccc(F)c2)C[C@H]1c1cccc(C(F)(F)F)c1	inconclusive: 39.8 µM [inhibitor, partial curve, poor fit]
Cc1ccc(C(=O)N2C[C@@H](CO)[C@H](c3ccncc3)C2)cc1F	inconclusive: 39.8 µM [inhibitor, single point]
CCCCS(=O)(=O)Nc1ccc([C@H]2OCC(=O)N(Cc3ccc(F)cc3)[C@@H]2CO)cc1	inconclusive: 1.58 µM [inhibitor, full curve, poor fit]
CC(=O)Nc1cc(C(=O)NCc2ccc(C)cc2)ccc1Sc1ccc(C)cc1	inconclusive: 1.41 µM [inhibitor, full curve, poor fit]
c1ccc(-n2cnnc2CC2CCNCC2)cc1	inconclusive: 3.16 µM [inhibitor, single point]
CC1=C[C@@H](CNCc2cccnc2)[C@H](C(C)C)C[C@H]1Cc1nnc(-c2ccc([N+](=O)[O-])cc2)o1	inconclusive: 31.6 µM [inhibitor, partial curve, poor fit]
COc1ccc(Cl)cc1NC(=O)CN(C)S(=O)(=O)c1ccc2c(c1)CCCN2C(C)=O	inconclusive: 20 µM [inhibitor, single point]
O=C1CCN(C(=O)c2cc(C3CC3)[nH]n2)CCCCCCN1	inconclusive: 15.8 µM [inhibitor, partial curve]
CCc1ccc(-c2nc(CN3CCCC(C(=O)N4CCN(c5cc(Cl)ccc5C)CC4)C3)c(C)o2)cc1 (stereo not drawn)	inconclusive: 12.6 µM [inhibitor, partial curve, poor fit]
O=C(Nc1cccc(OC(F)(F)F)c1)C1(CCO)CCN(c2ncccn2)C1 (stereo not drawn)	inconclusive: 39.8 µM [inhibitor, single point]
O=C(Nc1ccccc1)c1cccc(S(=O)(=O)Nc2cccc(F)c2)c1	inconclusive: 10 µM [inhibitor, partial curve, poor fit]
O=c1[nH]c(C2CCCN(Cc3ccc(-c4ccccc4)cc3)C2)nc2ccc(F)cc12 (stereo not drawn)	inactive and inconclusive: 39.8 µM [inhibitor, single point]
Cc1onc(-c2ccc(F)cc2F)c1C(=O)Nc1cccc(C(F)(F)F)c1	inconclusive: 12.6 µM [inhibitor, single point]
O=C(c1nnc(COc2cc(F)cc(F)c2)n1-c1ccccc1)N1CCC[C@@H]1c1nc2ccccc2[nH]1	inconclusive: 3.55 µM [inhibitor, single point]
CC(C)Sc1ncc(Cl)c(C(=O)Nc2nnc(C(C)C)s2)n1	inactive
CCC(C)NC(=O)N1CCN(Cc2c(C)noc2C)CC1 (stereo not drawn)	inconclusive: 10 µM [inhibitor, partial curve, poor fit]
Nc1cccc(-c2ccc(N3CCCCC3)nn2)c1	active: 1.78 µM
COCCNC(=O)CC[C@]12CC[C@](C)(O)C[C@H]1C(C)(C)C[C@@H]2NC(=O)c1ccc(C(F)(F)F)cc1	inconclusive: 39.8 µM [inhibitor, single point]
C=CCNC(=O)[C@@H]1[C@H](c2cc(OC)c(OC)c(OC)c2)c2cc3c(cc2[C@H](O)[C@H]1CO)OCO3	inactive
Cc1ccc(-c2ccnc(N3CCC(N(C)Cc4ccon4)CC3)n2)c(C)n1	inactive
CC(=O)N1CCCC2(C1)CN(C)c1ccc(C(=O)NCCc3ccccc3)cc12 (stereo not drawn)	inactive

Compound	Potency
O=C(NCc1ccc(F)cc1)c1cc(-c2ccc[nH]2)n[nH]1	inactive
COc1ccc(CCNC(=O)c2c(C)nn(-c3ccc(F)cc3)c2-n2cccc2)cc1OC	inconclusive: 2.82 µM [inhibitor, single point]
NC1CCc2nn(CC(=O)NCc3ccc4c(c3)OCO4)c(=O)n2CC1 (stereo not drawn)	inactive
Cc1ccc(-c2c(C(=O)NCc3ccc(Cl)cc3)nc3sccn23)cc1	inconclusive: 28.2 µM [inhibitor, partial curve, poor fit]
Cc1ccc(CN2CCOCCNC(=O)CC2)s1	inconclusive: 3.16 µM [inhibitor, full curve, poor fit]
Cn1cnc(C(=O)N2[C@@H]3CC[C@H]2CC(NC(=O)c2ccc(F)cc2)C3)c1 (stereo partly drawn)	inconclusive: 10 µM [inhibitor, partial curve, poor fit]
O=C(CCc1nc2cccnc2n1Cc1cccs1)Nc1cccc(Cl)c1	inconclusive: 25.1 µM [inhibitor, single point]
CCOC(=O)c1cc(-c2ccccc2)n(CCC(=O)Nc2ccc(Cl)c(C(F)(F)F)c2)c1C	inconclusive: 15.8 µM [inhibitor, partial curve, poor fit]
C[S+](=O)([O-])N1CCC2(CC1)CN(C(=O)c1c[nH]c3ccccc13)Cc1ccccc1O2	inconclusive: 31.6 µM [inhibitor, partial curve, poor fit]
Cc1oc(C)c2c(=O)cc(-c3ccc4c(c3)OCO4)cc(OC(=O)c3ccccc3Cl)c12	inconclusive: 31.6 µM [inhibitor, single point]
CC(=O)NO	inactive
COCCNC(=O)CN1CN(c2ccccc2)C2(CCN(C(=O)C3CCCCC3)CC2)C1=O	inactive
CC(N)(Cc1ccc(O)c(O)c1)C(=O)O (stereo not drawn)	inactive
CCOC(=O)N1CCc2c(sc(NCc3ccc(OC)c(OC)c3OC)c2C(=O)Nc2ccc(OC)cc2OC)C1	inconclusive: 25.1 µM [inhibitor, partial curve, poor fit]
Cc1cccc(-c2c3c(=O)n(C)c(=O)n(C)c3cn2-c2cc(N)c(Cl)cc2Cl)c1	inconclusive: 8.91 µM [inhibitor, partial curve, poor fit]
Cc1noc(/C=C/N(C)C)c1S(=O)(=O)N1CCCC(C(=O)Nc2ccc(F)cc2F)C1 (stereo not drawn)	inconclusive: 22.4 µM [inhibitor, single point]
CC(C)(C)OC(=O)N1CCC(c2c(C(=O)NCc3cccs3)cnn2-c2ccc(F)cc2F)CC1	inconclusive: 39.8 µM [inhibitor, single point]
COc1ccc(OCC(=O)N2CCC(Cc3nc(-c4ccc(F)cc4)no3)CC2)cc1	inconclusive: 11.2 µM [inhibitor, partial curve, poor fit]
O=C(Nc1cccs1)N1CCNc2cnc(Nc3cccc(C(F)(F)F)c3)nc2C1	inactive
CCS(=O)(=O)c1ncc(Cl)c(C(=O)N2CCN(c3cccc(Cl)c3)CC2)n1	active: 2.24 µM
COc1cc(OC)c(NC(=O)Cn2c(N(C)Cc3ccccc3)nc(C)cc2=O)cc1Cl	inconclusive: 12.6 µM [inhibitor, partial curve, poor fit]
